Like-named read-outs stand apart in the source and are kept apart here. These are yes or no findings as the source states them, for the method shown. In cells and extracts the contact can be indirect. Some binding calls cover weakened binding; strength is not graded here. For some assays here: Where a sequence is shown, tags or fusion partners need not be part of it.
Experiments:
[1] = target: Flag-tagged p62 (sequestosome 1, SQSTM1) (UniProt Q13501); assay: co-IP; HEK293T cells co-transfected with tagged plasmids; whole-cell lysates in low-salt lysis buffer; immunoprecipitation with anti-Flag beads, immunoblot; in some panels with or without co-expressed Myc-Vangl2, in WT, NDP52 KO or p62 KO cells, or after CQ and Baf-A1 for 8 hr
[2] = target: T1, Flag-tagged NBR1 (neighbor of BRCA1) (UniProt Q14596); assay: as above
T1 sequence: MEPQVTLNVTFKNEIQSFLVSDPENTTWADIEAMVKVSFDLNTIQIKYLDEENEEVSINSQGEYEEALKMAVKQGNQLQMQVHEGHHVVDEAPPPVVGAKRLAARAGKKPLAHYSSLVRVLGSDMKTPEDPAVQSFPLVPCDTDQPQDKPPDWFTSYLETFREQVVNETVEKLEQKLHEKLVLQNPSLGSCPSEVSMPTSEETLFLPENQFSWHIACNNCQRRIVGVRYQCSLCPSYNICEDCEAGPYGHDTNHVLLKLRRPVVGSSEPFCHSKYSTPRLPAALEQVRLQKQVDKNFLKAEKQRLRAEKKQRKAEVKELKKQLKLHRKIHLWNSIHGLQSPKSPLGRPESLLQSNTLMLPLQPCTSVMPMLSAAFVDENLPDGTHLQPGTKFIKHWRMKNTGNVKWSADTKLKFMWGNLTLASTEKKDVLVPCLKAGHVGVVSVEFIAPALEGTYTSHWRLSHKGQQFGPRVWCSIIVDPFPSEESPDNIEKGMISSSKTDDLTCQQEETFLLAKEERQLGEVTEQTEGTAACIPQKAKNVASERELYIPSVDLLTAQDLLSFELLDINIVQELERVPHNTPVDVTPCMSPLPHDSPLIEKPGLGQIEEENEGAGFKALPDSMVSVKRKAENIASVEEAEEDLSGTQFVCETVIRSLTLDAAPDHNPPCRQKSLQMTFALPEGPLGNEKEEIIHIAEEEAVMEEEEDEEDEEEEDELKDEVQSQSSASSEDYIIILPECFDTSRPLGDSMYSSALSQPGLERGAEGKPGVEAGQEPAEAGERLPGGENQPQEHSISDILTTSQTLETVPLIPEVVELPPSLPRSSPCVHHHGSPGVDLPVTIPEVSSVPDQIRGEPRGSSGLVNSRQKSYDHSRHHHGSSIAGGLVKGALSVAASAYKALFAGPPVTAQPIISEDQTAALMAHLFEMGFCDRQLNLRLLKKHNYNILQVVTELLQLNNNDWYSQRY

By UniProt entry, the sequences of proteins in these tests, tags left out.
UniProt O60238: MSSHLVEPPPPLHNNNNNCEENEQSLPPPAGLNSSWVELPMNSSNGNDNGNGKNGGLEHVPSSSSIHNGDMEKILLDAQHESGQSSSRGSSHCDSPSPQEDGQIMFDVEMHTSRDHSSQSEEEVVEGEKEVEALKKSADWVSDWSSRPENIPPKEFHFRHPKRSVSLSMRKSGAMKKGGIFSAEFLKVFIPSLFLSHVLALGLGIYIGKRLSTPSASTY
UniProt Q04207: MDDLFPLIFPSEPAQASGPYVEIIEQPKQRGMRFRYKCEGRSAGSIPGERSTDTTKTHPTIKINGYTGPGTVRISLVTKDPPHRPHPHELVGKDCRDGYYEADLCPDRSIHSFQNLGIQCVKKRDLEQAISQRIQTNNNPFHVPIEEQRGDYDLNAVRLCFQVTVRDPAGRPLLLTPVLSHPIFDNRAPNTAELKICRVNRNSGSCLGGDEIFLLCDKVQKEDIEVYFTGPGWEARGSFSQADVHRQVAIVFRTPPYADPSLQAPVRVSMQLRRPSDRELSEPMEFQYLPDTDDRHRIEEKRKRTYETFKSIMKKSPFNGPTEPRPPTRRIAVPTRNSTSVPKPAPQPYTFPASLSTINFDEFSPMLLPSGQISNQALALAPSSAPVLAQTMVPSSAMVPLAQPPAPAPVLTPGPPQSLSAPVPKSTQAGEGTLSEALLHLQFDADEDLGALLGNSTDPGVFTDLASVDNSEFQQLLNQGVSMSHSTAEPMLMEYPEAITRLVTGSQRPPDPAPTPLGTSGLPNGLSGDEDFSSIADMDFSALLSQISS
UniProt Q04206: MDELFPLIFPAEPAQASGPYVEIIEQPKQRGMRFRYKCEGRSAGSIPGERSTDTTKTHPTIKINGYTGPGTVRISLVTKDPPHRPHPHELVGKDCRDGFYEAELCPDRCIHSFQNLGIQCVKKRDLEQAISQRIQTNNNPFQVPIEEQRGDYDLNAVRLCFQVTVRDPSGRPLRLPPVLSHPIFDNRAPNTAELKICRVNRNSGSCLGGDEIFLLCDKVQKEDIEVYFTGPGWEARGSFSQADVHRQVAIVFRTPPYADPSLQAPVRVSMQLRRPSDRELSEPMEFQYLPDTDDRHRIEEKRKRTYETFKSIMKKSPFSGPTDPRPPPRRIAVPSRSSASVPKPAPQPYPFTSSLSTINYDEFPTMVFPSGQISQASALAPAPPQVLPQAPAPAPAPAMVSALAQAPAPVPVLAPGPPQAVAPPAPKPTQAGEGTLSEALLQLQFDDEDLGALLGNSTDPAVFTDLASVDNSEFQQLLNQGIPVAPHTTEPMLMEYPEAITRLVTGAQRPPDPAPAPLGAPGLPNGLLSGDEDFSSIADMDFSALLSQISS
UniProt P22366: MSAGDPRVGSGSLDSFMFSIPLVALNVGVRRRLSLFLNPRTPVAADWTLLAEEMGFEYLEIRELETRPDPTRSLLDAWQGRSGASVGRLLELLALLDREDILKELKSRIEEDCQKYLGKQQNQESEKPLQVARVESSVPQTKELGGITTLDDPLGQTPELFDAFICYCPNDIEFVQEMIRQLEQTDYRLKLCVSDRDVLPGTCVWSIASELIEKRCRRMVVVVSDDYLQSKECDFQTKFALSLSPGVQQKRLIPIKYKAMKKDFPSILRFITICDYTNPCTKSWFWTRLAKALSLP

[3] = target: T2, Flag-tagged NDP52 (nuclear dot protein 52, CALCOCO2) (UniProt Q13137); assay: as above
T2 sequence: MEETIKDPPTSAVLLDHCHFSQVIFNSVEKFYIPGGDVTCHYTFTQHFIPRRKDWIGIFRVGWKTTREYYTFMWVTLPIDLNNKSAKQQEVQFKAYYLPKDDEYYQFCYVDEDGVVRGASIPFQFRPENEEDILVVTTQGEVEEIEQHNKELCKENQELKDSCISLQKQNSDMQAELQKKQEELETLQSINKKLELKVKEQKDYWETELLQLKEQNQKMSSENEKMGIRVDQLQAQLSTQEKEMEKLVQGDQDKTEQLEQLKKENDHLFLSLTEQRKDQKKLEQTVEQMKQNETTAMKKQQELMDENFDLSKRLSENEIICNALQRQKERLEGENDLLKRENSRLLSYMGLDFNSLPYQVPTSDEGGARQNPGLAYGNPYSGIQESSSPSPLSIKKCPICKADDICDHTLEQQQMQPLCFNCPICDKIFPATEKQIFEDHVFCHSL

Flag-tagged Nix = Flag-tagged Nix (UniProt O60238); assay: as above
Flag-tagged Vangl2 [4] = target: T3, Flag-tagged Vangl2 (UniProt Q9ULK5); assay: as above
T3 sequence: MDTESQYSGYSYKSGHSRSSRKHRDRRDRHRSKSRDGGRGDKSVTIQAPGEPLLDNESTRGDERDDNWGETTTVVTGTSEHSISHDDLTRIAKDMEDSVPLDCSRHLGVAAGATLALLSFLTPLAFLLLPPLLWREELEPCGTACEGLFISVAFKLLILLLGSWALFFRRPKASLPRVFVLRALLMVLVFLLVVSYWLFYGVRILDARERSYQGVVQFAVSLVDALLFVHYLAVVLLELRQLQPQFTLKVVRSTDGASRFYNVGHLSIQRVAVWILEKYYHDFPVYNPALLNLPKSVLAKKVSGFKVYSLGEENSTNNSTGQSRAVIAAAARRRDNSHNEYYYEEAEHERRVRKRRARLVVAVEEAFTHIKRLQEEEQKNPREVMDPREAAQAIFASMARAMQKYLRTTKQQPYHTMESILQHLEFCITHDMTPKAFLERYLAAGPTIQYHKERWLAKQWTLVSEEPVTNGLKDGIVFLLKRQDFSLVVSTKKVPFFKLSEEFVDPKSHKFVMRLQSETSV

Flag-tagged Vangl2 [5] = target: T3, Flag-tagged Vangl2; assay: co-IP; HEK293T cells transfected with Flag-Vangl2 and HA-p65, separated into cytoplasm, membrane and nucleus fractions; immunoprecipitation with anti-Flag beads, immunoblot
[6] = target: T4, Vangl2, endogenous in mouse bone marrow-derived macrophages (mouse (endogenous in BMDMs)) (UniProt Q91ZD4); assay: co-IP; endogenous proteins; mouse BMDMs (WT and Vangl2-deficient) stimulated with LPS (100 ng/ml) for the indicated times; lysates immunoprecipitated with anti-p65 or anti-Vangl2 antibody or control IgG, protein A/G beads, immunoblot
T4 sequence: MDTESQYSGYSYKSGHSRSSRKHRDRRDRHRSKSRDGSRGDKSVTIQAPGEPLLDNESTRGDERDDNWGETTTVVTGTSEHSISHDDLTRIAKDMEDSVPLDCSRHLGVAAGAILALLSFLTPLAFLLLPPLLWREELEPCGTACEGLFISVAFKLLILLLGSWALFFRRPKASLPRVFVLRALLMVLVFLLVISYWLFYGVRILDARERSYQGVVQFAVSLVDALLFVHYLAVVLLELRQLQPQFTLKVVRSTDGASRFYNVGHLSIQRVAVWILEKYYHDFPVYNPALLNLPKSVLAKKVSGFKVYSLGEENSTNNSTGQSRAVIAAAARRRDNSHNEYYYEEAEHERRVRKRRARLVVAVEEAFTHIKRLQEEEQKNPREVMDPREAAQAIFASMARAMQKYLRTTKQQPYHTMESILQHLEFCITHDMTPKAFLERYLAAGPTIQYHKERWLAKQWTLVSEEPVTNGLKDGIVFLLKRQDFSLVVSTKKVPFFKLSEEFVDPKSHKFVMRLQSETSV

[7] = target: p65, endogenous in mouse bone marrow-derived macrophages (mouse (endogenous in BMDMs)) (UniProt Q04207); assay: as above
[8] = target: T4, Vangl2, endogenous in mouse bone marrow-derived macrophages (mouse (endogenous in BMDMs)); assay: as above; remark: listed apart in the source

Q: Which results are given for “HA-tagged p65 (from UniProt Q04206 1-551)”?
A: binding [1]: binds; binding [2]: no binding; binding [3]: binds; binding (Flag-tagged Nix): no binding; binding (Flag-tagged Vangl2 [4]): binds; binding (Flag-tagged Vangl2 [5]): binds

Q: With “MyD88, endogenous in mouse bone marrow-derived macrophages (from UniProt P22366 1-296)” as the molecule, how does the binding [6] read?
A: no binding

B1: NDP52, endogenous in mouse bone marrow-derived macrophages (protein, UniProt A2A6M5 1-331)
chain: MDQCPIPTLLEHGNFSQVLFNNVEKFYAPRGDIMCYYTLTEKFIPRRKDWIGIFKVGWKTTQEYYTFMWAPLPKDQNKDSATQQEIQFKAYYLPKDVERYQFCYVDEDGLVRGTSVPFQFCPDPDEDIMVVINKEKVEEMEQLSEELYQQNQELKDKYADLHEQLQRKQVALEATQRVNKTLEHKVEEKASWEKEKASWEEEKASWEEEKASWEEEKASWEEEKASWEEEKASWEEEKASWEEEKASWEEEKASWEEEKASWEEEKASWEEEKASWEEEKASWEEEKASWEKEKASWEEEKASWEKEKAPWEVEKAPWKEVKAYWWNDLHR
Q: How did the binding [7] turn out when B1 was run?
A: binds

B2: Vangl2, endogenous in mouse bone marrow-derived macrophages (protein, UniProt Q91ZD4 1-521)
chain: MDTESQYSGYSYKSGHSRSSRKHRDRRDRHRSKSRDGSRGDKSVTIQAPGEPLLDNESTRGDERDDNWGETTTVVTGTSEHSISHDDLTRIAKDMEDSVPLDCSRHLGVAAGAILALLSFLTPLAFLLLPPLLWREELEPCGTACEGLFISVAFKLLILLLGSWALFFRRPKASLPRVFVLRALLMVLVFLLVISYWLFYGVRILDARERSYQGVVQFAVSLVDALLFVHYLAVVLLELRQLQPQFTLKVVRSTDGASRFYNVGHLSIQRVAVWILEKYYHDFPVYNPALLNLPKSVLAKKVSGFKVYSLGEENSTNNSTGQSRAVIAAAARRRDNSHNEYYYEEAEHERRVRKRRARLVVAVEEAFTHIKRLQEEEQKNPREVMDPREAAQAIFASMARAMQKYLRTTKQQPYHTMESILQHLEFCITHDMTPKAFLERYLAAGPTIQYHKERWLAKQWTLVSEEPVTNGLKDGIVFLLKRQDFSLVVSTKKVPFFKLSEEFVDPKSHKFVMRLQSETSV
Q: For B2, which binding [7] is on record?
A: binds

B3: IKKα, endogenous in mouse bone marrow-derived macrophages (enzyme, UniProt Q60680 1-745)
chain: MERPPGLRPGAGGPWEMRERLGTGGFGNVSLYQHRELDLKIAIKSCRLELSSKNRERWCHEIQIMKKLDHANVVKACDVPEELNFLINDVPLLAMEYCSGGDLRKLLNKPENCCGLKESQILSLLSDIGSGIRYLHENKIIHRDLKPENIVLQDVGGKTIHKIIDLGYAKDVDQGSLCTSFVGTLQYLAPELFENKPYTATVDYWSFGTMVFECIAGYRPFLHHLQPFTWHEKIKKKDPKCIFACEEMTGEVRFSSHLPQPNSLCSLIVEPMESWLQLMLNWDPQQRGGPIDLTLKQPRCFALMDHILNLKIVHILNMTSAKIISFLLPCDESLHSLQSRIERETGINTGSQELLSETGISLDPRKPASQCVLDGVRGCDSYMVYLFDKSKTVYEGPFASRSLSDCVNYIVQDSKIQLPIIQLRKVWAEAVHYVSGLKEDYSRLFQGQRAAMLSLLRYNANLTKMKNTLISASQQLKAKLEFFRKSIQLDLERYSEQMTYGISSEKMLKAWKEMEEKAIHYSEVGVIGYLEDQIMSLHTEIMELQKSPYGRRQGDLMESLEQRAIDLYKQLKHRPPDHLYSDSTEMVKIIVHTVQSQDRVLKELFGHLSKLLGCKQKIIDLLPKVEVALSNIKEADNTVMFMQGKRQKEIWHLLKIACTQSSARSLVGSSLEGTVTPPVSAWLPPTLADREHPLTCVVTPQDGETLAQMIEENLNCLGHLSTIIREANEDQSSSLMSLDWSWLAE
Q: Which binding [8] does the source give for B3 here?
A: no binding

B4: IKKβ, endogenous in mouse bone marrow-derived macrophages (enzyme, UniProt O88351 1-757)
chain: MSWSPSLPTQTCGAWEMKERLGTGGFGNVIRWHNQATGEQIAIKQCRQELSPKNRNRWCLEIQIMRRLNHPNVVAARDVPEGMQNLAPNDLPLLAMEYCQGGDLRRYLNQFENCCGLREGAVLTLLSDIASALRYLHENRIIHRDLKPENIVLQQGEKRLIHKIIDLGYAKELDQGSLCTSFVGTLQYLAPELLEQQKYTVTVDYWSFGTLAFECITGFRPFLPNWQPVQWHSKVRQKSEVDIVVSEDLNGAVKFSSSLPFPNNLNSVLAERLEKWLQLMLMWHPRQRGTDPQYGPNGCFRALDDILNLKLVHVLNMVTGTVHTYPVTEDESLQSLKTRIQENTGILETDQELLQKAGLVLLPDKPATQCISDSKTNEGLTLDMDLVFLLDNSKINYETQITPRPPPESVSCILQEPKRNLSFFQLRKVWGQVWHSIQTLKEDCNRLQQGQRAAMMSLLRNNSCLSKMKNAMASTAQQLKAKLDFFKTSIQIDLEKYKEQTEFGITSDKLLLAWREMEQAVEQCGRENDVKHLVERMMALQTDIVDLQRSPMGRKQGGTLDDLEEQARELYRKLREKPRDQRTEGDSQEMVRLLLQAIQSFEKKVRVIYTQLSKTVVCKQKALELLPKVEEVVSLMNEDERTVVRLQEKRQKELWNLLKIACSKVRGPVSGSPDSMNVSRLSHPGQLMSQPSSACDSLPESDKKSEELVAEAHALCSRLESALQDTVKEQDRSFTTLDWSWLQMEDEERCSLEQACD
Q: How did the binding [8] turn out when B4 was run?
A: no binding
